Test results: the supplement of paper PMC7826260
Some of the results follow. Cleavage of a single-stranded DNA pool by Rep nickase domains was read by sequencing (3 µM enzyme, 1 h, 37 °C); shown is the middle of each 90-letter strand. Values are log2 of uncut reads against the no-enzyme pool; the lower, the more was cut; hits are not called. Reads are scaled to the total; values above 0 arise when much of the pool is cut.

Legend:
Assay in all cases: uncleaved DNA left, log2 of reads against the no-enzyme library (log2 ratio); higher = less cleavage (more negative = more Rep cleavage of the k-mer); sequences stand for … in CTCGTCCG…ACCGGAGA
[1] = system: T1, Rep nickase domain of Muscovy duck circovirus
T1 sequence (residues 1-111 of Rep, tag left off): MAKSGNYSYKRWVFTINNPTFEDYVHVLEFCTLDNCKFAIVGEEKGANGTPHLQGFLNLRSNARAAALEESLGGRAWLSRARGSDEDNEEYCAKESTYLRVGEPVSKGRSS
Experimental: (§1)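 A pool of 90-nt single-stranded DNAs with seven random bases just before the constant AC of the nick site (name = the seven bases) was cut by 3 µM recombinant His6-SUMO-tagged Rep nickase domain (300 nM DNA, 50 mM HEPES pH 8.0, 50 mM NaCl, 1 mM MnCl2, 1 h, 37 °C, three replicates). Uncut DNA was amplified and sequenced.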

[2] = system: T2, Rep nickase domain of banana bunchy top virus
T2 sequence (residues 1-94 of Rep, tag left off): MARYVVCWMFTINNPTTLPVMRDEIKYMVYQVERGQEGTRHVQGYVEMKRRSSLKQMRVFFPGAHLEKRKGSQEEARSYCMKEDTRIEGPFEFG
Experimental: as §1

[3] = system: T3, Rep nickase domain of cabbage leaf curl virus
T3 sequence (residues 1-116 of Rep, tag left off): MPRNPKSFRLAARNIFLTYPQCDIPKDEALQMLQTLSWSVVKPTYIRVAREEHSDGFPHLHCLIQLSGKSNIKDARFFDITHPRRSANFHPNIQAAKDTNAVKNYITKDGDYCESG
Experimental: as §1

[4] = system: T4, Rep nickase domain of chickpea chlorotic dwarf virus
T4 sequence (residues 1-124 of Rep, tag left off): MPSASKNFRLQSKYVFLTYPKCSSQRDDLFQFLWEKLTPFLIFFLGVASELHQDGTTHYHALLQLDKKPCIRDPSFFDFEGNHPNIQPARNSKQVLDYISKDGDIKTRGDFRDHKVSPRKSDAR
Experimental: as §1

[5] = system: T5, Rep nickase domain of faba bean necrotic yellows virus
T5 sequence (residues 1-98 of Rep, tag left off): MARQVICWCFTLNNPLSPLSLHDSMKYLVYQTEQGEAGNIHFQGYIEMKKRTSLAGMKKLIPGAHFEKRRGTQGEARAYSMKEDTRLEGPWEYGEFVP
Experimental: as §1

[6] = system: T6, Rep nickase domain of maize striate mosaic virus
T6 sequence (residues 1-117 of Rep, tag left off): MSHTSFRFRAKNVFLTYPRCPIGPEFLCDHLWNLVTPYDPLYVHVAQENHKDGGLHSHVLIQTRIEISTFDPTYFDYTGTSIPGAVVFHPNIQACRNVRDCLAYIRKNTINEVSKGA
Experimental: as §1

[7] = system: T7, Rep nickase domain of porcine circovirus 2
T7 sequence (residues 2-116 of Rep, tag left off): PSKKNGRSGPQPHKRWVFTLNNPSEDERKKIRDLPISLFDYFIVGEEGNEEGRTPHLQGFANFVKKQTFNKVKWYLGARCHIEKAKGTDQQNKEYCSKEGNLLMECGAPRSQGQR
Experimental: as §1

[8] = system: T8, Rep nickase domain of tomato golden mosaic virus
T8 sequence (residues 1-124 of Rep, tag left off): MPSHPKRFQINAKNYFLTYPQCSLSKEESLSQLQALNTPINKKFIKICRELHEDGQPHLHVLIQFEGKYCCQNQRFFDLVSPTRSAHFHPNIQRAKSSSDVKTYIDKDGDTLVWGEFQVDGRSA
Experimental: as §1

[9] = system: T9, Rep nickase domain of tomato yellow leaf curl virus
T9 sequence (residues 1-136 of Rep, tag left off): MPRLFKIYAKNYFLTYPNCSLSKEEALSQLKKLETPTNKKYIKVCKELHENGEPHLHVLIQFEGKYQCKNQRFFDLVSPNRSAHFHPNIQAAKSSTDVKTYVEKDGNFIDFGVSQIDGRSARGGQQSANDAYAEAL
Experimental: as §1

[10] = system: T10, Rep nickase domain of wheat dwarf virus
T10 sequence (residues 1-137 of Rep, tag left off): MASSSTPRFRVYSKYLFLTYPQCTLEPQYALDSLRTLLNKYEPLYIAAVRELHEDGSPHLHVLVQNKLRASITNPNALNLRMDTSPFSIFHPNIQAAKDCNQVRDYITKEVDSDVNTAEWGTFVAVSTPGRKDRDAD
Experimental: as §1

Sequence | uncleaved DNA left (log2) [1] | uncleaved DNA left (log2) [2] | uncleaved DNA left (log2) [3] | uncleaved DNA left (log2) [4] | uncleaved DNA left (log2) [5] | uncleaved DNA left (log2) [6] | uncleaved DNA left (log2) [7] | uncleaved DNA left (log2) [8] | uncleaved DNA left (log2) [9] | uncleaved DNA left (log2) [10]
ATGCAGT | 0.132 | -0.12 | -0.607 | -0.678 | 0.0194 | -1.08 | -0.0167 | 0.0727 | 0.00334 | -0.0378
ACAACGC | 0.0248 | 0.0368 | -0.368 | -0.327 | 0.0612 | -0.846 | 0.216 | – | -0.0534 | -0.0977
CGGACGG | 0.152 | 0.299 | 0.388 | 1.24 | 0.0666 | 1.72 | 0.184 | 0.144 | 0.0938 | 0.144
TATTATG | -0.361 | -0.0588 | -0.415 | -0.707 | 0.0438 | -1.06 | 0.024 | 0.137 | 0.055 | -0.0125
ACAGGAT | 0.099 | 0.125 | 0.271 | 1.64 | 0.178 | 1.9 | 0.226 | – | -0.0937 | 0.13
CTTCCAG | -0.0167 | 0.000317 | -0.608 | -0.558 | -0.0866 | -1 | 0.0208 | -0.0908 | 0.0505 | -0.0494
TGAGATT | 0.088 | -0.0483 | 0.354 | -0.804 | 0.205 | 1.02 | -0.015 | -0.0168 | 0.0185 | 0.0433
GGGGCTG | -0.0125 | -0.0362 | 0.544 | 1.48 | -0.114 | 2.08 | 0.0525 | – | -0.0448 | -0.0173
TAGACCG | 0.0437 | 0.0773 | -0.521 | -0.471 | 0.0908 | -1.08 | 0.138 | -0.0432 | -0.015 | -0.034
ATTCAAA | 0.088 | 0.286 | 0.272 | 0.182 | 0.0934 | -0.34 | 0.171 | 0.209 | 0.0895 | 0.18
CCAGGTG | -0.0454 | 0.115 | -0.21 | -0.184 | -0.134 | -0.518 | 0.279 | – | -0.0125 | -0.0234
GTTCGGT | -0.0253 | 0.0765 | 0.306 | 0.853 | -0.00635 | 1.51 | 0.0747 | 0.0759 | 0.0428 | -0.000254
GCTTTCA | -0.00026 | 0.0607 | 0.232 | 0.162 | 0.00809 | 0.721 | 0.109 | 0.0865 | 0.0837 | 0.122
ATTTAGA | 0.152 | 0.0559 | -0.107 | -0.129 | 0.0641 | -0.884 | 0.089 | 0.127 | 0.109 | 0.0656
